In the supplement of paper PMC3334620:
The full ranking holds about 33,000 sequences; the median of “E-score (-0.5 to 0.5)” is about -0.054, and the highest 2% start at about 0.39. Some of the results follow.

What follows are sequences tested against Ylr278c (UniProt Q05854) (assay: PBM E-score (8-mer binding enrichment) (E-score (-0.5 to 0.5)); higher = stronger / more preferred TF binding; most listed sequences are background and not binding sites). Settings: protein concentration: 200 nM; construct: GST-DNA-binding domain.
How it was run: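 PURExpress in vitro transcription/translation supplied GST-tagged yeast transcription factors, either full-length or DNA-binding domain. Applied at about 100-200 nM to universal all-10-mer Agilent arrays double-stranded by primer extension, the bound protein was detected with fluorescent anti-GST. E-scores, modified Wilcoxon-Mann-Whitney statistics, were given by the Universal PBM Analysis Suite to ungapped eight-base words pooled with their reverse complements after masliner normalisation.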

Sequence	PBM E-score
TCACCACA	-0.079
ATTACAAA	-0.0267
CAGGTATC	-0.165
AACAATAC	-0.0468
CATTTTTC	-0.00428
AGACCCTA	-0.201
CAAGCCAC	-0.321
AAGTCTTC	-0.273
AAATACGC	0.145
ATTCAGCG	0.0394
AAATCCGC	0.401
CGGCACAA	0.0576
ACAATTCG	0.071
AGATGTTC	-0.075
GACCCACA	-0.00281
ATACGAAA	0.172
CCGCCCGA	0.322
AAATCGAG	0.0338
ACCAGGGG	-0.259
ACTAATAC	0.163
CGGCCTTC	0.394
CCATGTAC	-0.215
GGTTTGTA	-0.0458
CGCTGCAC	0.00488
GCCGTAAC	0.085

Sequence	PBM E-score
CTGTTAAA	-0.235
CCACCAGC	-0.0173
GCCGGGAC	0.255
GACGCCGA	0.247
AGGAGCGG	0.149
AAGGCCAC	-0.16
ATGCCACA	-0.134
GGAGGTAC	0.171
CCCCATTC	0.0131
GAAACTGC	0.176
CGAGTTCC	0.0896
TAATCATA	-0.145
GCCCGCTA	-0.184
CGAATTAC	0.118
TGATGACA	-0.19
TCCCGCGA	0.258
ACTTATGC	0.00033
GAGATATC	0.16
CGCCGTAG	0.193
GGCGAACC	0.139
CAAAACTC	0.135
ACCAATAC	-0.0547
TTAACAAA	0.0882
CGATACAA	0.088
AGAGAGCA	-0.154

Sequence	PBM E-score
CACAAATA	0.021
GCGTCGCA	-0.0363
AGGGTGCG	0.085
CGGGTCCA	0.0866
CCGCGCGG	0.433
ACAATACA	-0.101
AGCCAACG	-0.143
AGCGAACT	-0.153
GACATATC	0.0335
CAGAACAA	-0.0658
CCTCGAGC	-0.0816
CCCAGGAG	-0.188
CCAGGGCA	-0.0733
ACGGGATA	0.261
AGTACTTA	-0.249
ATAAGGTC	-0.0149
CCCTCGAA	-0.153
GCAACTTA	0.0425
GTGCTAAA	-0.0505
ACCACTAC	-0.0356
CATAGCCG	0.23
AATGACCA	-0.0301
AGTTCGAC	-0.184
CGTGCACA	-0.24
TCGGAAAA	0.426

Sequence	PBM E-score
GCTCCGCA	0.377
ATGCATTC	-0.0574
ATAGGGCA	-0.253
CCATACCG	0.0905
AACAGCAT	-0.0672
GCATGACC	-0.0686
GACCGTCA	-0.141
TATGAATA	-0.0404
AGTACCTA	-0.177
AGTTAACA	0.0624
GTAAACAC	0.0225
CACTTTCA	-0.0848
CAACCAGA	-0.13
AGCCTTGG	-0.198
CCCAGAAG	-0.0787
AGAATACT	-0.13
AACTAGTA	-0.204
AAGTGTCC	0.0928
CAACTAAA	-0.0258
AACGAGTT	-0.0999
CCCATTGA	0.0934
GCCATCAC	-0.14
GCACTCTA	-0.0847
ATGTATGA	-0.215
CGAGGCTA	0.0173

Sequence	PBM E-score
CAAGTAAC	-0.166
AGTCAAAC	0.00399
GCAAACAA	-0.1
CTCGTTAA	-0.0559
AATTCGGA	0.449
CAACGTTG	-0.0482
GGCGTCCA	0.00771
ATCTTTGC	-0.0515
ACGTTTAA	-0.219
ACATAGGG	-0.225
GCTTTACA	0.0914
CGGATCAG	0.218
GATAAACA	0.035
ACGGGTAT	0.0239
CAACATCG	0.0687
GGCAACTA	-0.025
CAGGCGCC	0.046
GCCATAAC	-0.311
AAGCGCAC	0.117
CTTGATAC	-0.28
GAGCACTC	-0.0164
GGACACCA	0.0663
ATGTTAAG	0.0308
ACGAGCTA	-0.128
GAAATCCC	0.254

Sequence	PBM E-score
GGTCTGGA	-0.159
ATCGCCAC	-0.0201
AGGATTAC	0.00998
CTTCCACA	-0.151
CCTAAAAC	-0.125
TACTCATA	-0.285
AACGAAAC	-0.0816
GGCGTCAC	0.00547
GGGCCCTA	-0.129
AAACTTTG	-0.0242
AACATCTC	0.0706
GCTCCAAC	0.0437
GTAACCTA	0.0773
ACGATCAG	-0.29
CTGAGCCA	-0.102
TGAAAGCA	-0.136
CTGTCTCC	0.0913
ACGCTCCT	-0.237
TACAGGTA	-0.218
AAATCACT	-0.17
TGCTGAAA	-0.0949
AGCGCATC	-0.0458
CATCGCGG	0.231
ATGCCATG	-0.155
CGAGACGA	0.017

Sequence	PBM E-score
GGCGCCCC	0.148
ATTAGGCA	-0.151
AGGAATAT	0.106
AAACCGGC	0.356
CCTATCAC	-0.119
GCTTGCAC	-0.0733
CAGGTTGC	-0.1
CCGGCTAG	0.234
GGCCACCC	0.078
GGGAGAAA	0.0906
GTGTATTA	-0.013
AGTGCACT	0.121
ACTGAACT	-0.162
AGGCTGCA	-0.242
GACCTATA	0.059
CGCAGCCC	0.173
GGACAGCC	0.176
GGCCGACA	0.248
AGCGGCCG	0.249
CGGCTTCC	0.244
AACCCTCA	-0.165
GCGCTAGC	-0.164
